Publication PMC4336329 (PLoS ONE, 2015)
In all, about 310,000 compounds went through this assay and about 2,200 (0.71%) showed an effect of 50% or more. Effects have a minus sign here. This is one part of the list. Where a SMILES comes first, the peptide text is derived from it. [ ]: non-standard residue; d: D form. The star is where a group is joined. ξ: configuration not given here. ξN = NC(=O)CC(N)C(=O)O; Boc = CC(C)(C)OC(=O)*

target: human ether-à-go-go-related gene (hERG) potassium channel (human, UniProt Q12809); assay: primary screen, population patch clamp on CHO cells stably expressing hERG
Sequence (Q12809 whole entry, looked up): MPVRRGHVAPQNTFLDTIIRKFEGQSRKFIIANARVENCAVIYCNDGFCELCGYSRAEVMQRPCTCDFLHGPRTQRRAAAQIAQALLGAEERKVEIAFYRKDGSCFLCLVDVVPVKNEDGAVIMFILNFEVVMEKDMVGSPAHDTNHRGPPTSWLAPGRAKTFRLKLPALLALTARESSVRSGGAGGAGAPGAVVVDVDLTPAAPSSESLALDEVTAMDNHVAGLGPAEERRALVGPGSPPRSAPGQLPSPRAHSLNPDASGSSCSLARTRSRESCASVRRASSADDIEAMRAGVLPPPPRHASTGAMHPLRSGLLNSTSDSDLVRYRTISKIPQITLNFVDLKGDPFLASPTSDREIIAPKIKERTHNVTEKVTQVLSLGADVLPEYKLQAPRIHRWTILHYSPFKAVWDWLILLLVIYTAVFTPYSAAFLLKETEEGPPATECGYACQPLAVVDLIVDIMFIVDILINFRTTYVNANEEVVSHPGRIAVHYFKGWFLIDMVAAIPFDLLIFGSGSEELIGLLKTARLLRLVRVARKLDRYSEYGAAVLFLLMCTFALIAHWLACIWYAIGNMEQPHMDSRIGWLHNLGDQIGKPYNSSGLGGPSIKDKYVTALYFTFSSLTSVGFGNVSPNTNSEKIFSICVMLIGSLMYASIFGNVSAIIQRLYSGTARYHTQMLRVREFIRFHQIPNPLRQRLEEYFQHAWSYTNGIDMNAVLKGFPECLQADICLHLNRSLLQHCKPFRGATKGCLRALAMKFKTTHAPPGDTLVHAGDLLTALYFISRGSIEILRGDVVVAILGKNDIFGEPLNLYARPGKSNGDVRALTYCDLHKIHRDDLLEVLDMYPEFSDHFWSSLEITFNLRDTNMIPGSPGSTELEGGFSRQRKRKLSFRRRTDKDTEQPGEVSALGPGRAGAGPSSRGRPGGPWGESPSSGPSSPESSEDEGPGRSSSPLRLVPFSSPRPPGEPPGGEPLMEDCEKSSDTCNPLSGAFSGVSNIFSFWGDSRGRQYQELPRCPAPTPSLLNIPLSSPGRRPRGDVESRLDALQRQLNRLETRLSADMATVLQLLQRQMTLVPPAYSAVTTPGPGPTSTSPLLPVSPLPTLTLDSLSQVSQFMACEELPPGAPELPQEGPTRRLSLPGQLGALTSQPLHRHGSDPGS

| Structure (SMILES) | hERG current change (%, negative = inhibition) at 1uM [%] |
| --- | --- |
| CCn1c(O)c(C(c2ccccn2)c2c(O)n(CC)c(=S)[nH]c2=O)c(=O)[nH]c1=S | 11.9 |
| O=C(COc1nncc2ccccc12)Nc1ccc(F)c(F)c1 | 12.9 |
| CCOC(=O)c1sc(/N=C/c2ccc(O)cc2O)cc1C | 13.3 |
| CCOC(=O)Cc1cc(=O)n2[nH]c(C)c(C#N)c2n1 | 14 |
| Cc1nc2cc(Cl)c([N+](=O)[O-])cc2s1 | 2.49 |
| CNC(=O)c1c(Cl)cnn1-c1ccc(C)cc1 | 14.6 |
| CCC(=O)Nc1ccccc1-c1nc2ccccc2[nH]c1=O | 17.5 |
| OC(CSc1c(Cl)cccc1Cl)CN1CCN(c2ccc(F)cc2)CC1 (stereo not shown) | -7.19 |
| CCCCc1ccc(NC(=O)CSc2nnc(CNC(=O)c3ccco3)o2)cc1 | 9.76 |
| COc1ccc(CC(=O)NNS(=O)(=O)c2ccccc2[N+](=O)[O-])cc1 | 17.9 |
| CCO.N#CC1=C(N)C(C#N)(C#N)C(c2cccnc2)C2CC(c3ccccc3)CC=C12 (stereo not shown) | 10.8 |
| CN1CCN(C(c2ccc(Cl)cc2)c2cc(Cl)c3cccnc3c2O)CC1 (stereo not shown) | 14.4 |
| Oc1ccccc1-c1nc2ccccc2nc1-c1ccccc1 | 8.28 |
| CCOC(=O)CNC(=O)C(CC(N)=O)NC(=O)OC(C)(C)C (stereo not shown) (Boc-[ξN]-Gly-OEt) | 19.9 |
| O=C(CNC1CCCCC1)NN=C(c1ccccc1)c1ccccc1 | -24.4 |
| Cc1ncoc1C(=O)Nc1cccc(Cl)c1C | 2.1 |
| COc1cccc(NC(=O)Nc2cnccn2)c1 | 4.79 |
| Cc1oc(-c2ccccc2)cc1C(=O)Nc1cccc2ccccc12 | 13.1 |
| Cc1c(NC(=O)C(C)OC(=O)c2cccc(S(=O)(=O)N(C)C)c2)c(=O)n(-c2ccccc2)n1C (stereo not shown) | 16.7 |
| Cc1cc(C(=O)N2CCOCC2)n(-c2ccccc2)n1 | 14 |

| Structure (SMILES) | hERG current change (%, negative = inhibition) at 1uM [%] |
| --- | --- |
| CCOC(=O)C1(CC2CCCCO2)CCN(S(=O)(=O)c2ccccc2)CC1 (stereo not shown) | 14.3 |
| CC(=O)NNC(=O)CCn1c2c(c3ccccc31)CCCC2 | 11.1 |
| CN1CCN(C(=O)/C(=C\c2cccs2)NC(=O)c2ccco2)CC1 | -65.2 |
| O=C(Nc1ccccc1)N(C1=NCCCCS1)c1cccc2ccccc12 | 5.62 |
| Cc1cc(N2CCC(N(C)C3CCCC3)CC2)nc2cc(O)ccc12 | 10.9 |
| COCCN=c1scc(-c2cccs2)n1/N=C/c1ccc(O)c(O)c1O | 4.07 |
| COc1ccc(OC(C)C(=O)N2CCc3ccccc3C2)cc1 (stereo not shown) | 3.27 |
| O=C(c1ccc(S(=O)(=O)c2cccc(Cl)c2)c([N+](=O)[O-])c1)N1CCN(c2ccccn2)CC1 | -0.439 |
| CCN1CCN(Cc2ccc(OC)c(OCc3ccccc3)c2)CC1 | -5.77 |
| COc1ccc2c(c1)C(C)=CC(C)(C)N2C(=O)C(C)N1C(=O)c2ccccc2C1=O (stereo not shown) | -0.0641 |
| COCCCNC(=O)C(=O)NC1CCCCC1C (stereo not shown) | 13.9 |
| O=C(O)c1ccc(S(=O)(=O)c2ccc3c(c2)C(=O)N(c2ccccc2[N+](=O)[O-])C3=O)cc1 | 20.6 |
| CCCC(c1nnnn1C(C)(C)C)N1CCN(c2ccccc2)CC1 (stereo not shown) | 2.32 |
| Cc1ccc(C(=O)OCC(=O)c2ccccc2)cc1 | 2.78 |
| CC(C)CCNC(=O)c1cc(-c2ccco2)nc2ccccc12 | 13.1 |
| O=C(Nc1ccccc1Oc1ccccc1)c1cnccn1 | 0.812 |
| Cc1ccc(Cn2ccc(NC(=O)c3cc(-c4ccc(Cl)cc4)on3)n2)cc1 | 20.3 |
| CCCCCn1nc(C)c(/C=N\NC(=O)c2cc(C)oc2C)c1C | -15.4 |
| CCCc1cc(C(=O)Nc2cccc3ccccc23)n(C)n1 | 14.9 |
| CCN(C(=S)NC(=O)Cc1ccc(OC)cc1)c1ccccc1 | 8.24 |

| Structure (SMILES) | hERG current change (%, negative = inhibition) at 1uM [%] |
| --- | --- |
| COc1ccccc1NC(=O)Cn1c(CCC(=O)O)ccc1-c1ccccc1 | 11 |
| Cc1ccc(C(=O)Nc2cc(C(F)(F)F)ccc2-n2cncn2)o1 | 3.24 |
| COc1cc(C(=O)NC(C)c2cc(C)ccc2C)ccc1OCC(=O)N1CCOCC1 (stereo not shown) | -10.7 |
| CSc1nnc(-c2ccccc2)n1C | 11.8 |
| O=C(COc1ccc2c3c(c(=O)oc2c1)CCCC3)NCCCN1CCOCC1 | 1.79 |
| CCC(CC)n1[nH]c(=O)cc1N | 4.67 |
| Cc1ccc(S(=O)(=O)NCCC(=O)NCCSc2ccc(Br)cc2)cc1 | 9.99 |
| N#Cc1cnc(SCCc2ccccc2)nc1N | 1.46 |
| O=C(NCc1ccc2c(c1)OCO2)c1cc(-c2ccccc2)on1 | 7.99 |
| COc1cc2[nH]c(=S)nc(NCc3cccc(Cl)c3)c2cc1OC | 11.1 |
| Cn1c(SCC(=O)Nc2nccs2)nnc1-c1ccc(S(=O)(=O)N2CCCC2)cc1 | 5.76 |
| CCN(CC)S(=O)(=O)c1ccc(-c2nnc3sc4cccc(C)c4n23)cc1 | 4.32 |
| C/C(=N\NC(=O)c1cccc([N+](=O)[O-])c1)c1ccncc1 | 3.5 |
| CCN(c1ccc(OC)cc1)S(=O)(=O)c1csc(C(=O)N2CCCC2)c1 | -8.29 |
| Cl.O=C(CN1CCCC1)Nc1ccc(OC(F)(F)F)cc1 | -16.5 |
| Nc1nc(CSc2ccccn2)nc(Nc2ccccc2)n1 | 14.8 |
| Cc1ccc2c(Cl)cc(Cl)c(OCC(=O)NC(=O)NCc3ccco3)c2n1 | 7.97 |
| O=C(/C=C/c1ccccc1)OCCCN=C1NS(=O)(=O)c2ccccc21 | 7.74 |
